T1: UL141 ectodomain (UL141ecto), His-tagged (human cytomegalovirus (HCMV), UniProt Q6RJQ3 37-278)
T1 construct: also called gpUL141; source: SF9 cells transduced with baculovirus, supernatant
T1 sequence: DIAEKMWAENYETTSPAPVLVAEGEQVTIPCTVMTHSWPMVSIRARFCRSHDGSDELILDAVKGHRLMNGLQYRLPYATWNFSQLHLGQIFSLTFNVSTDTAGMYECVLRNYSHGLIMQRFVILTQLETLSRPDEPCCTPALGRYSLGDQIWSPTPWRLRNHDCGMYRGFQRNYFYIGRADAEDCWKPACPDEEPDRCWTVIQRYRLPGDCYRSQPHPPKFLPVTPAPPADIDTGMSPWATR

B1: TRAIL-R1:Fc (Fc fusion)
chain: not shown
notes: also called DR4; TRAIL-R1 Fc fusion protein; source: bought: R&D Systems
B2: TRAIL-R2:Fc (Fc fusion)
chain: not shown
notes: also called DR5; TRAIL-R2 Fc fusion protein

Biological target: T1, UL141 ectodomain (UL141ecto), His-tagged
Assay: SPR; Biacore 3000; TRAIL DR Fc fusion proteins immobilised on an anti-human Fc capture chip, UL141ecto as analyte in Biacore running buffer (0.78-50 uM on TRAIL-R1, 0.016-1 uM on TRAIL-R2)
Settings: both partners purified

Binder	Kd [nM]	koff [s⁻¹]	kon [M⁻¹ s⁻¹]
B1	2300	0.014	6000
B2	6	7.2e-05	12000
